PubChem BioAssay AID686978 (National Center for Advancing Translational Sciences (NCATS), 2013)
Values joined by “and” are separate entries in the source; they are usually repeats but may differ in a detail not shown here. Identical values can stand only once. About 64,000 (15%) of roughly 420,000 compounds were called active. The shares of active, inactive and inconclusive entries below differ from those in the screen. Calls come from the whole dose curve; as a rule, active = well fitted inhibition curve with a large enough effect; inconclusive = small, poorly fitted or top-dose-only effect; inactive = flat fitted curve, though single readings scatter. Where the call is inconclusive, the potency comes from a doubtful curve fit. Peptide text beside a SMILES is read from it. * marks the point of attachment. Cbz = O=C(OCc1ccccc1)*; CH2Cl = ClC*

Experiment: qHTS for Inhibitors of human tyrosyl-DNA phosphodiesterase 1 (TDP1): qHTS in cells in absence of CPT; note: nearly all actives have a fitted effect of over 55% in size
Details: DT40 Tdp1-/- hTDP1 cells, no CPT, ATP luminescence, 48 h; activity change, negative = growth inhibition: at 46.2 µM (top of the series)
Method in brief: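 Growth of hTDP1-complemented DT40 Tdp1-knockout cells is measured by ATP luminescence after at least 48 hr compound exposure at 37 °C, with DMSO substituting for the 20 nM CPT used in the parallel screen.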
% is set by controls: 0 for no effect and ±100 for the full control effect; potency is the fitted concentration of half-maximal effect; tags give direction and shape of the fitted curve.

| Structure (SMILES) | Potency | activity change, negative = growth inhibition |
| --- | --- | --- |
| CCOC(=O)C1CCCN(C(=O)c2ccc(C(=O)c3ccccc3)cc2)C1 (stereo unspecified) | inconclusive: 29.1 µM [inhibitor, single point] | – |
| COc1ccccc1CCC(=O)Nc1ccc(C)cc1Cl | inactive | – |
| Cc1ccc(CNC(=O)CCCN2C(=O)COc3ccc(C)cc32)cc1 | inconclusive: 25.9 µM [inhibitor, single point] | – |
| O=c1c(-c2ccc(F)cc2)nc2cncnc2n1Cc1ccc(F)cc1 | inactive | – |
| Cc1cc(C(=O)NNC(=S)NCC(C)C)no1 | – | inconclusive: -48.6% [inhibitor] |
| COc1ccc(Nc2nc(N)nc(CN3CCc4ccccc4C3)n2)cc1 | inconclusive: 18.4 µM [inhibitor, single point] | – |
| Cc1ccc(S(=O)(=O)N2c3ccccc3NC(=O)C2CC(=O)Nc2ccccc2)cc1 (stereo unspecified) | inconclusive: 23.1 µM [inhibitor, single point] | – |
| CC1=Nc2cc(C(=O)NC(C)C)ccc2Sc2ccc(C)cc21 | active: 4.11 µM | – |
| Cc1ccc(S(=O)(=O)NC2CCCCCCC2)cc1 | inconclusive: 3.66 µM [inhibitor, single point] | – |
| COc1ccc(NC(=O)c2ccc(NC(=O)c3ccco3)cc2)c(OC)c1 | inconclusive: 29.1 µM [inhibitor, single point] | – |
| COc1cc(-n2c(=O)c3ccccc3n(Cc3cccc(F)c3)c2=O)cc(OC)c1OC | inactive | – |
| Fc1ccc(Br)cc1C1C=C(c2ccc(Br)cc2)Nc2nnnn21 (stereo unspecified) | active: 23.1 µM | – |
| CSCCC(NC(=O)COc1ccccc1)C(=O)N1CCCCC1 (stereo unspecified) | inactive | – |
| Cc1cccc(NC(=O)C(=O)NCCc2csc(-c3ccc(C(F)(F)F)cc3)n2)c1C | inactive | – |
| O=C(COc1ccc(Cl)cc1)N/N=C/c1cccc2cccnc12 | active: 18.4 µM | – |
| CCn1c(CNc2nc3ccccc3n2C(C)C)nc2ccccc21 | active: 10.3 µM | – |
| COc1ccc2oc(-c3ccc(C)c(NC(=O)c4ccc(N5CCOCC5)c([N+](=O)[O-])c4)c3)nc2c1 | inconclusive: 2.24 µM [inhibitor, partial curve] | – |
| CCOC(=O)c1ccc(Nc2ncnc3ccc(C)cc23)cc1 | inconclusive: 11.6 µM [inhibitor, partial curve] | – |
| COc1cc(NC(=O)c2ccc(-c3c(C)noc3C)c3ccoc23)cc(OC)c1OC | active: 8.2 µM | – |
| O=S(=O)(Nc1ccccc1)c1ccc(-c2csnn2)cc1 | active: 23.1 µM | – |
| CCCNC(=O)C(Cc1cccc(OC)c1)NC(=O)c1ccc(C(C)(C)C)cc1 (stereo unspecified) | inconclusive: 25.9 µM [inhibitor, single point] | – |
| Cc1c(C(=O)NCc2ccc3c(c2)OCO3)sc(=O)n1Cc1ccc(S(C)(=O)=O)cc1 | inconclusive: 16.4 µM [inhibitor, single point] | – |
| Cc1cc([N+](=O)[O-])nn1CCCC(=O)Nc1cc(Oc2ccccc2)cc([N+](=O)[O-])c1 | active: 20.6 µM | – |
| COc1ccc(NC(=O)/C(C#N)=C/c2ncc([N+](=O)[O-])n2C)c(OC)c1 | inconclusive: 23.1 µM [inhibitor, partial curve] | – |

| Structure (SMILES) | Potency | activity change, negative = growth inhibition |
| --- | --- | --- |
| Cc1ccccc1-c1cnc(C(O)c2ccc(F)cc2C)[nH]1 (stereo unspecified) | inconclusive: 25.9 µM [inhibitor, single point] | – |
| C=Cc1ccc(Cn2c(C)c(C(=O)NCc3ccc(C#N)cc3)sc2=O)cc1 | active: 16.4 µM | – |
| CN(CC(=O)Nc1ccc(C(N)=O)cc1)S(=O)(=O)c1ccc2c(c1)OCCO2 | inconclusive: 20.6 µM [inhibitor, partial curve] | – |
| Cc1ccc(NC(=O)c2c(NC(=O)c3ccccc3)sc3c2CCC3)cc1 | inactive | – |
| NC(=O)c1nsc(C(=O)N(c2ccccc2)C(C(=O)NCc2ccc(F)cc2)c2ccc(O)cc2)c1N (stereo unspecified) | active: 18.4 µM | – |
| COc1ccccc1C(CNC(=O)c1cccc(S(=O)(=O)Nc2ccc(C)cc2)c1)N1CCCC1 (stereo unspecified) | inconclusive: 29.1 µM [inhibitor, single point] | – |
| CC1CCCCN1CCCNC(=O)c1ccc(Br)cc1 (stereo unspecified) | inactive | – |
| COc1ccc2nc(-c3ccccn3)[nH]c2c1 | inactive | – |
| O=C(NCc1ccccc1)C12CN(Cc3ccccc3)CC1C(c1cccc([N+](=O)[O-])c1)=NO2 (stereo unspecified) | active: 23.1 µM | – |
| COCCN1C(=O)/C(=C/c2ccc(N3CCCC3)cc2C)SC1=S | inconclusive: 16.4 µM [inhibitor, single point] | – |
| COC(=O)Cc1ccc(NC(=S)NCc2ccco2)cc1 | inactive | – |
| Cc1cccc(CSc2ccc3nnc(-c4ccccn4)n3n2)c1 | inconclusive: 14.6 µM [inhibitor, single point] | – |
| CC1=C(CC/C(C)=N/NC(N)=S)C(C)(C)CCC1 | active: 3.16 µM | – |
| CSCC(=O)NC1CCCc2c1cnn2-c1ccc(C)c(C)c1 (stereo unspecified) | inconclusive: 29.1 µM [inhibitor, single point] | – |
| O=C(CC1C(=O)NCCN1CC(c1ccccc1)c1ccccc1)NCC1CCOCC1 (stereo unspecified) | inactive | – |
| CCCCN1C(=N)N([C@@H](C)CN2CCC[C@H]2CN2C(N)=NC[C@@H]2Cc2ccccc2)C[C@H]1[C@H](C)CC | inconclusive: 29.1 µM [inhibitor, single point] | – |
| O=P(CCc1ccccc1)(c1ccccc1)c1ccccc1 | inactive | – |
| N#CC(C(=O)C1CCCCC1)c1nc2ccccc2[nH]1 (stereo unspecified) | inconclusive: 29.1 µM [inhibitor, single point] | – |
| COc1nc(N(C)C)nc(N2CC(=O)N(CCNS(=O)(=O)c3ccc(C)cc3)C2=N)n1 | inactive | – |
| CC(C)c1cc(C(C)C)c(S(=O)(=O)N2CCNCC2)c(C(C)C)c1 | inconclusive: 29.1 µM [inhibitor, single point] | – |
| CCc1cc(=O)oc2cc(C)cc(OCC(=O)NCCCn3ccnc3)c12 | inactive | – |
| CCO[C@H]1OC(C(=O)N2CCCCCCC2)=C[C@@H](c2coc3ccccc3c2=O)[C@@H]1CCCO | inconclusive: 20.6 µM [inhibitor, single point] | – |
| CC(C)CC(NC(=O)OCc1ccccc1)C(=O)NC(Cc1ccccc1)C(=O)CCl (stereo not drawn) (Cbz-Leu-Phe-CH2Cl; configuration not given here) | active: 2.91 µM | – |
| CCOc1ccccc1C=C1CCc2ccccc2C1=O | inconclusive: 29.1 µM [inhibitor, single point] | – |

| Structure (SMILES) | Potency | activity change, negative = growth inhibition |
| --- | --- | --- |
| O=C(Cn1c(C(=O)N2CCN(C3CCCC3)CC2)cc2sccc21)c1ccccc1 | inconclusive: 18.4 µM [inhibitor, single point] | – |
| COC(=O)c1ccc(C(=O)NN)cc1 | inactive | – |
| O=C1CN(C(=O)c2ccc(Br)o2)C(c2ccc(F)cc2)c2cc(Cl)ccc2N1 (stereo unspecified) | inconclusive: 18.4 µM [inhibitor, single point] | – |
| C[C@@H]1c2ccccc2N2C[C@H](Cc3ccc(C(=O)c4ccccc4)cc3)C[C@@H]12 | inconclusive: 10.3 µM [inhibitor, single point] | – |
| CCOC(=O)C1(CCCc2ccccc2)CCN(C(=O)CCCn2cncn2)CC1 | active: 25.9 µM | – |
| CCc1ccc(CN(C(=O)c2cc(=O)c3ccc(C)cc3o2)C2CCS(=O)(=O)C2)cc1 (stereo unspecified) | inconclusive: 25.9 µM [inhibitor, single point] | – |
| O=C(c1ccco1)N1CCN(C2=NS(=O)(=O)c3ccccc32)CC1 | inactive | – |
| CN(C)/C=C/C(=O)c1ccc(Cl)cc1Cl | inconclusive: 6.51 µM [inhibitor, single point] | – |
| O=C(NCC1CCCO1)c1ccc2[nH]c3c(c2c1)CCCC3 (stereo unspecified) | inactive | – |
| Fc1ccc(C(c2nnnn2C2CCCC2)N2CCN(Cc3ccccc3)CC2)cc1 (stereo unspecified) | inconclusive: 29.1 µM [inhibitor, single point] | – |
| Cc1ccc(NC(=O)c2ncn(CCCNCCCN(C)C)n2)cc1C | inconclusive: 20.6 µM [inhibitor, single point] | – |
| COc1cc(N/N=C(\C)c2ccc(O)c(C)c2)nc(-c2ccccc2)n1 | inconclusive: 16.4 µM [inhibitor, single point] | – |
| Cc1cc(C)c(NC(=O)c2ccc(CNS(=O)(=O)c3cc(C(F)(F)F)ccc3Cl)cc2)c(C)c1 | active: 16.4 µM | – |
| CCN(CC)CCNC(=O)c1ccc(-n2c(-c3ccccc3)cc3c2CCCC3)cc1 | inconclusive: 25.9 µM [inhibitor, single point] | – |
| COc1cccc(CNC(=O)CCCn2nc(C)c3c(C)n(-c4ccc(C)cc4)nc3c2=O)c1OC | inconclusive: 16.4 µM [inhibitor, partial curve] and inconclusive: 23.1 µM [inhibitor, partial curve] | – |
| COc1ccc(-c2nc3cnc(OC)nc3n(Cc3cccs3)c2=O)cc1 | inconclusive: 18.4 µM [inhibitor, partial curve] | – |
| CC(C)Cn1c(=O)c2sccc2n2c(CCCC(=O)NC3CCCCC3)nnc12 | inconclusive: 16.4 µM [inhibitor, partial curve] | – |
| O=C(CCNC(=O)c1ccccc1)OCN1C(=O)c2ccccc2C1=O | inactive | – |
| O=C(O)c1cccc(N=NN2CCOCC2)c1 | inactive | – |
| O=[N+]([O-])c1ccc(NCc2ccc3c(c2)OCO3)cc1 | inconclusive: 18.4 µM [inhibitor, single point] | – |
| Cc1csc(CN(C)C(=O)c2sc3ncnc(NCC4CCCO4)c3c2C)n1 (stereo unspecified) | inconclusive: 13 µM [inhibitor, partial curve] | – |
| COc1ccccc1N(C)S(=O)(=O)c1ccc(C(=O)N(C)Cc2ccc(Cl)s2)cc1 | active: 14.6 µM | – |
| C/C=C(\C)C(=O)Nc1cccc(C2=NOC3(C2)C[C@@H](C(N)=O)N(C(=O)c2ccccc2C(=O)c2ccccc2)C3)c1 (stereo partly specified) | inconclusive: 20.6 µM [inhibitor, single point] | – |
